The source of these data is PubChem BioAssay AID463173 (ICCB-Longwood Screening Facility, Harvard Medical School, 2010).

Hit rate of the full screen: of about 52,000 compounds, about 1,700 (3.3%) were called active. Rule as the data show it: active = survival mostly below about 52% (no sharp cut-off); inactive = mostly above about 56%. The list shows a part of the results.

The subject of this test is Wild type. The test can be described thus: growth inhibition of S. aureus wild type versus tarO mutant, primary screen, teichoic acid synthesis inhibitors, RN4220, OD600 (AID 463173). The settings on record: S. aureus RN4220 wild type/DeltatarO growth, OD600, 18 h, stronger effect = lower value, screened at 18.75 µg/mL (by protocol).
As to `Cc1ccc(N2CC(NC(=O)CCc3ccccc3)CC2=O)cc1C` (stereo unspecified), the survival is inactive: 78%.

In the case of `COCCn1c(SCC(=O)Nc2sc(C)c(C)c2C#N)nnc1C(C)C`, the survival is inactive: 103%.

Take `Cc1ccc(S(=O)(=O)c2[nH]c(-c3ccccc3)nc2SCCC(=O)O)cc1`: the survival was inactive: 87%.

Turning to `CCOc1ccc(NC(=O)c2c(Nc3ccccc3C)sc(C(=O)c3ccc(Cl)cc3)c2N)cc1`, the survival was inactive: 131%.

As for `Cc1nn(CC(=O)N2CCN(c3cccc(C(F)(F)F)c3)CC2)c(=O)c2cc3sccc3n12`, the survival is inactive: 82%.

Regarding `O=C(CSc1nnnn1-c1ccc2c(c1)OCCO2)NC1CCCC1`, the survival was inactive: 111%.

Regarding `CCn1ccc2c(OCC(=O)NCc3ccccc3)cccc2c1=O`, the survival is inactive: 66%.

For `CCCN1CCN(c2cc3c(cc2F)c(=O)c(S(=O)(=O)c2ccc(CC)cc2)cn3CC)CC1`, the survival is inactive: 70%.

Regarding `NC(=O)c1ccc(NC(=O)C2CCN(S(=O)(=O)Cc3ccccc3)CC2)cc1`, the survival is inactive: 91%.

As to `Cc1ccc(C(=O)O)cc1NC1(c2ccccc2)C(=O)c2ccccc2C1=O`, the survival was inactive: 131%.

Consider `COc1ccc2oc(-c3ccc(C)c(NC(=O)c4ccc(-c5ccccc5[N+](=O)[O-])o4)c3)nc2c1`, for which the survival was inactive: 48%.

As for `Cc1cccc(-c2nc3c(cnn3-c3ccccc3)c(=O)n2-c2ccc(Br)cc2)c1`, the survival was inactive: 133%.

`COC(=O)c1ccc(Nc2cc(=O)[nH]c(=O)[nH]2)cc1`: the survival was inactive: 108%.

Regarding `CC(C)(C)C1CCc2nc(NC(=O)c3ccc([N+](=O)[O-])cc3)sc2C1` (stereo unspecified), the survival is inactive: 83%.

`CC1Cn2c(C(=O)NCc3cccc(Br)c3)cc3cccc(c32)S1` (stereo unspecified): the survival is inactive: 82%.

As to `CCCN(C(=O)C1CC1)c1nnc(-c2ccc(Cl)cc2)s1`, the survival is inactive: 100%.

In the case of `Cc1c(Cl)cccc1NC(=O)CSc1nc2ncccc2o1`, the survival is active: 1%.

For `CN(C)c1ccc(NC(=O)CSc2nc3ccccc3cc2C#N)cc1`, the survival is inactive: 104%.

Consider `CN1CCN(C(=S)NC(=O)c2ccccc2)CC1`, for which the survival was inactive: 125%.

As to `COc1ccccc1CNC(=O)C1CCCN(c2nnc(C)c3c(C)n(-c4ccccc4)nc23)C1` (stereo unspecified), the survival was inactive: 91%.

On to `Cc1ccc2[nH]c(CSc3nnc(NC(=O)c4ccccc4F)s3)cc(=O)c2c1`, for which the survival was inactive: 75%.

In the case of `O=C(CCSCc1cccc(Cl)c1)NCc1ccc(F)cc1Cl`, the survival is inactive: 66%.

For the compound `C=Cc1ccc(Cn2c(=O)cc(C)c3c(C)nn(-c4ccccc4)c32)cc1`, the survival is active: -1%.

As for `COc1cc(OC)cc(-c2cc3nc(C)c(CCC(=O)Nc4ccc(C(C)=O)cc4)c(C)n3n2)c1`, the survival is inactive: 78%.

Consider `COCc1cc(C)nc2sc3c(c12)NC(c1ccc(O)c(OC)c1)N(c1ccccc1)C3=O` (stereo unspecified), for which the survival is inactive: 79%.

As to `COc1ccc(OCC(=O)N(Cc2cccs2)c2ccc(OC)cc2)cc1`, the survival was inactive: 85%.

`CC(C)c1ccc(CNc2nc(-c3ccco3)nn2C(=O)c2ccc([N+](=O)[O-])cc2)cc1`: the survival was inactive: 87%.

Consider `CSCCC(NS(=O)(=O)c1ccc2c(c1)oc(=O)n2C)C(=O)Nc1ccc(Cl)cc1` (stereo unspecified), for which the survival was inactive: 93%.

Consider `COc1ccc(NC(=O)Cn2c(=O)n(Cc3ccc4c(c3)OCO4)c(=O)c3ccc(C(=O)NC4CCCCC4)cc32)cc1`, for which the survival was inactive: 74%.

`CCn1c(C)c(C)c2cc(C(=O)NCc3ccc(OC(C)C)cc3)ccc21`: the survival was inactive: 72%.

For the compound `COc1ccc2c(c1)cc1c(=O)n(CC(=O)NCCCOC(C)C)nc(C)n12`, the survival is inactive: 79%.

For the compound `CCOCCCNc1nc2ccccc2n2c(CC)nnc12`, the survival is inactive: 124%.

`COc1ccc(-c2noc(N3CCC(C(=O)N4CCN(c5ccccc5F)CC4)CC3)n2)cc1`: the survival was inactive: 108%.

On to `COc1ccc2occ(C(=O)c3coc4ccc(O)c(CN(C)C)c34)c2c1`, for which the survival was inactive: 109%.

Take `COc1ccc(Cl)cc1S(=O)(=O)Nc1cccc(-c2ccc(N3CCCC3)nn2)c1`: the survival was inactive: 66%.

With `COc1ccc(-c2cn3nc(N4CCCC(C(=O)Nc5ccccc5OC)C4)sc3n2)cc1` (stereo unspecified), the survival was inactive: 135%.

On to `COc1ccccc1NC(=O)CSc1nc(-c2ccc(C)cc2)nc2c1Cc1c(CO)cnc(C)c1O2`, for which the survival was inactive: 83%.

For `Cc1nn2c(=O)cc(COC(=O)c3ccc(NC(=O)c4cccc(Br)c4)cc3)nc2s1`, the survival was inactive: 113%.

As to `CCCN1C2CCCC1CC(NC(=O)NC1CCCCC1)C2` (stereo unspecified), the survival was inactive: 99%.

Consider `Cc1ccc(Cl)cc1NC(=O)CN1C(=O)CSc2ccc(S(=O)(=O)N3CCCC3)cc21`, for which the survival is inactive: 92%.

For `C=CCn1cc(/C=C2\SC(=O)N(C)C2=O)c2ccccc21`, the survival is inactive: 119%.

Take `COC(=O)c1ccccc1NC(=O)Cn1c(=O)n(CCC(=O)NCc2ccccc2OC)c(=O)c2ccccc21`: the survival was inactive: 92%.

Regarding `Cc1cccc(NC(=O)CCN2CCN(c3ccccc3F)CC2)c1`, the survival was inactive: 131%.

Consider `CCOC(=O)c1c(S(=O)(=O)NCC(=O)N2CCN(c3cc(C)ccc3C)CC2)c(C)n(C)c1C`, for which the survival is inactive: 82%.

With `CCCN(C(=O)Cn1ncc2c1-c1ccccc1OC2)c1cccc(C)c1`, the survival is inactive: 65%.

With `Cc1cccc(N2CCN(c3ccc(C(=O)O)cc3NC(=O)c3cccc(Cl)c3)CC2C)c1` (stereo unspecified), the survival was inactive: 82%.

For the compound `CCc1ccc(-c2nc(SCC(=O)NCC3CCCO3)c(-c3ccc(C)cc3)[nH]2)cc1` (stereo unspecified), the survival is inactive: 86%.

As to `Cc1cccc(C)c1NC(=O)Cn1c(=O)n(CCCS(=O)(=O)C2CCCCC2)c(=O)c2ccccc21`, the survival was inactive: 66%.

Regarding `CCOCCc1nn2c(=O)cc(COC(=O)Cc3ccccc3)nc2s1`, the survival was active: -1%.

For `CCOC(=O)C1CCN(c2c(C(=O)c3ccc(OC)cc3)cnc3ccccc23)CC1`, the survival is inactive: 125%.

`COc1ccc(CCNC(=O)c2nc(SCc3ccccc3F)ncc2Cl)cc1OC`: the survival was inactive: 84%.

On to `O=C(CSc1nccn1C1CCCC1)Nc1cccc(F)c1`, for which the survival is inactive: 126%.

As for `CSCC[C@@H](C(=O)Nc1cccc(F)c1)N1Cc2ccccc2C1=O`, the survival was inactive: 80%.

On to `CCOC(=O)c1cc2c(=O)n3ccccc3nc2n(Cc2ccco2)c1=NC(=O)c1ccc(C)c(C)c1`, for which the survival was inactive: 60%.

In the case of `CN(c1ccccc1)S(=O)(=O)c1nnc(NC(=O)COc2ccccc2)s1`, the survival is inactive: 72%.

On to `O=C(Cn1c(=O)oc2cc(S(=O)(=O)N3CCCCCC3)ccc21)Nc1ccc(F)cc1F`, for which the survival is inactive: 89%.
